Source: PubChem BioAssay AID938 (National Center for Advancing Translational Sciences (NCATS), 2007)
Among all 73,000 compounds or so, about 1,800 (2.5%) were called active. The inconclusive results got no clear call from the source; some entries with a clear call stand among them for comparison. Calls follow the shape of the dose curve; as a rule, active = well fitted activation curve with a large enough effect; inconclusive = small, poorly fitted or top-dose-only effect; inactive = no such curve, though single readings can be large or run the other way. No potency is given beside an inconclusive call; the fits are too rough.

Assay: qHTS Assay for Agonists of the Thyroid Stimulating Hormone Receptor: Activators of Intracellular cAMP Concentrations in Parental HEK 293; also: nearly all actives have a fitted effect of over 55% in size; as to activation: % of control where 0% means no effect
Details: parental HEK293 CNG cAMP sensor, membrane potential fluorescence; activation: at 57.1 µM (top of the series) unless noted
How it was run: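 Parental HEK 293 cells stably expressing a cAMP-gated CNG channel were loaded with membrane potential dye containing 100 uM RO 20-1724 for 60 min. Compound added for 30 min; depolarization read as fluorescence intensity at 590 nm.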
Potency is read from the fitted curve at half-maximal effect; tags tell the direction and shape of the fitted curve.

Row | SMILES | Potency | activation
1 | CCN(C(C)=O)c1nnc(CSc2nc3ccccc3s2)s1 | inconclusive [activator, partial curve] | –
2 | CCCOc1c(OC)cccc1C1CC(=O)Nc2cc3c(cc21)OCCO3 (stereo not given) | active: 15.8 µM | –
3 | CCOC(=O)CSc1nc2ccccc2c(=O)n1CC1CCC(C(=O)NCc2ccco2)CC1 (stereo not given) | inconclusive [activator, partial curve, poor fit] | –
4 | O=C1C=C[C@@H](O)[C@H]2[C@@H]3C(=O)N(Cc4ccc5c(c4)OCO5)C(=O)[C@@H]3CC[C@H]12 | – | inactive: -5.29% [at 11.4 µM]
5 | Cc1ccccc1N1CCN(S(=O)(=O)C[C@@]23CC[C@H](C[C@H]2NC(=O)[C@@H](N)CCS(C)(=O)=O)C3(C)C)CC1 | inconclusive [activator, single point] | –
6 | C=CCn1c(SCC(=O)Nc2cccc(C(=O)OC)c2)nnc1C(C)NC(=O)c1cccs1 (stereo not given) | – | inactive: -3.85%
7 | COc1cc(NC(=O)c2cc3ccccc3o2)c(OC)cc1Cl | inconclusive [activator, partial curve] | –
8 | CCCCOc1ccccc1C1NC(=O)NC(C)=C1C(=O)OCc1ccco1 (stereo not given) | – | inactive: 13.8%
9 | COc1cccc(-c2cc3nc4c(c(N5CCC6(CC5)OCCO6)n3n2)CCCC4)c1 | inconclusive [activator, single point] | –
10 | CCCCCS(=O)(=O)CCCCCCCCCCn1c(-c2ccc(O)cc2)c(C)c2cc(O)ccc21 | – | inactive: 14.7%
11 | CC(C)CCN1CCc2nc(-c3ccccc3)c3c(c2C1)COC(C)C3 (stereo not given) | – | inactive: 1.2% [at 11.4 µM]
12 | CC(=O)NC1CC2CCCC(C1)N2CC(=O)NCc1ccc(F)cc1 (stereo not given) | inconclusive [activator, single point] | –
13 | CC(=O)Nc1cc(OC(=O)c2ccco2)cc(OC(=O)c2ccco2)c1 | inconclusive [activator, single point] | –
14 | CC(=O)N1CCC[C@@]2(CCN(C(c3ccccc3)c3ccccc3)C2)C1 | inconclusive [activator, partial curve] | –
15 | CC(C)NC(=O)N1CC[C@@]2(CCCN(C(=O)c3cc(C(F)(F)F)cc(C(F)(F)F)c3)C2)C1 | – | inactive: 9.04%
16 | Cc1cc(C)n(-c2nc3ccccc3nc2Nc2ccc3[nH]c(=O)[nH]c3c2)n1 | – | inactive: -46.9%
17 | CCOC(=O)c1[nH]c(C)c(C(=O)N2CCOCC2)c1C | inconclusive [activator, single point] | –
18 | Cc1cccc(Cn2cnc3c(nnn3Cc3ccc(Cl)cc3)c2=O)c1 | inconclusive [activator, partial curve] | –
19 | Cc1cccc(-c2nc(CN3CCCC(C(=O)NC4CCCC4)C3)c(C)o2)c1 (stereo not given) | inconclusive [activator, partial curve] | –
20 | CCOC(=O)c1cc2c(=O)n3cccc(C)c3nc2n(CCc2ccc(OC)c(OC)c2)c1=N | inconclusive [activator, single point] | –
21 | CC(C)(S)[C@H](N)C(=O)O | – | inactive: 4.71% [at 11.4 µM]
22 | COc1ccc(Br)cc1CNC(=O)C1CCC(=O)N1C(C)C (stereo not given) | inconclusive [activator, full curve, poor fit] | –
23 | CCCN(CCO)Cc1cccc(Oc2ccccc2)c1 | inconclusive [activator, single point] | –

Row | SMILES | Potency | activation
24 | O=C(CSc1nc2ccccc2c(=O)n1CC1CCCO1)N1CCN(c2ccccc2)CC1 (stereo not given) | inconclusive [activator, single point] | –
25 | CCn1c(SCc2ccc(C)cc2)nnc1-c1cnccn1 | inconclusive [activator, single point] | –
26 | CCOC(=O)N1CCC(NC(=O)C2CCCN(S(C)(=O)=O)C2)CC1 (stereo not given) | inconclusive [activator, partial curve] | –
27 | COc1cccc([C@@H]2Oc3ccc(OC)cc3/C(=N/O[C@@H](C)CN3CCCc4nc(C)c(C)cc43)[C@@H]2O)c1 | active: 3.98 µM | –
28 | O=c1[nH]nc(Cc2ccccn2)c2ccccc12 | inconclusive [activator, single point] | –
29 | CCOc1ccc2cc(S(=O)(=O)n3ccnc3C)ccc2c1 | inconclusive [activator, partial curve] | –
30 | CCOC(=O)c1c(NC(=O)c2cccs2)sc2c1CCCC2 | – | inactive: 0.798%
31 | Cn1c(NC(=O)c2cc(-c3ccc4c(c3)OCO4)nc3ccccc23)cc(=O)n(C)c1=O | – | inactive: -0.184%
32 | CC(C)Cc1cc(-c2ccco2)c(C#N)c(N)n1 | inconclusive [activator, single point] | –
33 | CC(NC(=O)c1cc(-c2ccc(O)cc2)on1)c1ccccc1 (stereo not given) | – | inactive: 15.1%
34 | CCCn1c(SCC(=O)Nc2nc(C)c(C(=O)OC)s2)nnc1C(C)C | inconclusive [activator, full curve, poor fit] | –
35 | Cc1ccc(N(CC(=O)NC2CCC(C)CC2)S(=O)(=O)c2cccnc2)cc1 (stereo not given) | inconclusive [activator, single point] | –
36 | Cc1ccc(Cl)cc1N1CCN(Cc2nc3c(c(=O)[nH]c(=O)n3C)n2CCc2ccccc2)CC1 | inconclusive [activator, single point] | –
37 | CCOC(=O)c1cnc2c(C#N)c(C)nn2c1C | – | inactive: 7.78%
38 | COc1ccccc1-n1c(SC)nc(O)cc1=O | active: 31.6 µM | –
39 | CN(C)c1ncc2nc(-c3ccc(F)cc3)c(=O)n(Cc3cccs3)c2n1 | – | inactive: 16.1%
40 | CCCCCn1c(-c2ccco2)nc2nc3ccccc3nc21 | – | inactive: 15.3%
41 | CCN1C(=O)c2cccc3c(S(=O)(=O)Nc4ccccc4OC)ccc1c23 | inconclusive [activator, single point] | –
42 | c1ccc(-n2nnnc2SCc2cccc3nsnc23)cc1 | active: 20 µM | –
43 | Cc1ccc(C)c(OCCCC(=O)O)c1 | inconclusive [activator, partial curve] | –
44 | CNC(=O)c1cc2c(=O)n3cccc(C)c3nc2n1C | – | inactive: -3.11%
45 | CCSc1nc2cc(C(=O)OC)ccc2c(=O)n1CC | inconclusive [activator, partial curve] | –
